The target of one assay is T1, HA-NLRP11^PYD (human) (UniProt P59045).
T1 sequence: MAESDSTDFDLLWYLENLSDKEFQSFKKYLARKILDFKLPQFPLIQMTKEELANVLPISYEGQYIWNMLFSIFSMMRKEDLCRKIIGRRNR
Kind of assay: co-IP; immobilised anti-HA antibodies, lysates of transiently transfected HEK293 cells (PYD constructs); 50 mM HEPES pH 7.4, 10% glycerol, 2 mM EDTA, 1% NP-40, 100 mM NaCl; immunoblot for Myc. In general terms: In western blotting, separated proteins are transferred to a membrane and probed.

Sequences of proteins named here, by UniProt entry; tags and fusion partners are left off. A change or cut given only in a name is not applied to a line headed by its entry. Residues count along the entry.
UniProt Q9ULZ3: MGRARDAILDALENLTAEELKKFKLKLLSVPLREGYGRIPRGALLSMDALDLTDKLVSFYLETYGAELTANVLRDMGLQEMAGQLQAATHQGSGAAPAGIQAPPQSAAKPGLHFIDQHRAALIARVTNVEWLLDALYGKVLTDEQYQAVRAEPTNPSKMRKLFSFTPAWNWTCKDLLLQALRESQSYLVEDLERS
Flag-ASC^PYD: residues 1-91 of Q9ULZ3
UniProt Q96P20: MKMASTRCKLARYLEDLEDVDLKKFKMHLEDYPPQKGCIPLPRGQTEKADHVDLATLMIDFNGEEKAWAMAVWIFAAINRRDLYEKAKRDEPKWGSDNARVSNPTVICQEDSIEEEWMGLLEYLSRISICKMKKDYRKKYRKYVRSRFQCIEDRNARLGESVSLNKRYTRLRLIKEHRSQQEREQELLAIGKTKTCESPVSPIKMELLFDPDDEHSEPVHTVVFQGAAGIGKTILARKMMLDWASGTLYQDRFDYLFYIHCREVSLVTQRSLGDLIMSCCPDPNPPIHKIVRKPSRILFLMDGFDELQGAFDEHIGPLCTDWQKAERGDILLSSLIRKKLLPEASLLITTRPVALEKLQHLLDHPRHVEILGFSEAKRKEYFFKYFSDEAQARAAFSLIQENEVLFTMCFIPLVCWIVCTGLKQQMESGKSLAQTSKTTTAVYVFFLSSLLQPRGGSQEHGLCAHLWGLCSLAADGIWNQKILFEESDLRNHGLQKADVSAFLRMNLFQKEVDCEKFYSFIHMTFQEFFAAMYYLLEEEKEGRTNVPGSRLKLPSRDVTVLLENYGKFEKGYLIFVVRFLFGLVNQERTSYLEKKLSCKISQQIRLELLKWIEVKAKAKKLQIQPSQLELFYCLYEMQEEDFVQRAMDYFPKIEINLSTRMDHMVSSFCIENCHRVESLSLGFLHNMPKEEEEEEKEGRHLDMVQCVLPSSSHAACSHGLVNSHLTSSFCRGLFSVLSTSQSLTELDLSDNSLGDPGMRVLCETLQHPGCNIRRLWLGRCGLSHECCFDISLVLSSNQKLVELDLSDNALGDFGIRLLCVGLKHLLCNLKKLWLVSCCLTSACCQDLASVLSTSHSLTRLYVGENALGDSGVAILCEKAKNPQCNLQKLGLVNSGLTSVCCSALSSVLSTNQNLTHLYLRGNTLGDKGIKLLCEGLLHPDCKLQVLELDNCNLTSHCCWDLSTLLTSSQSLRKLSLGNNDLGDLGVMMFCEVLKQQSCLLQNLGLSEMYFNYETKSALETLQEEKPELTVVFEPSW
UniProt Q9NPP4: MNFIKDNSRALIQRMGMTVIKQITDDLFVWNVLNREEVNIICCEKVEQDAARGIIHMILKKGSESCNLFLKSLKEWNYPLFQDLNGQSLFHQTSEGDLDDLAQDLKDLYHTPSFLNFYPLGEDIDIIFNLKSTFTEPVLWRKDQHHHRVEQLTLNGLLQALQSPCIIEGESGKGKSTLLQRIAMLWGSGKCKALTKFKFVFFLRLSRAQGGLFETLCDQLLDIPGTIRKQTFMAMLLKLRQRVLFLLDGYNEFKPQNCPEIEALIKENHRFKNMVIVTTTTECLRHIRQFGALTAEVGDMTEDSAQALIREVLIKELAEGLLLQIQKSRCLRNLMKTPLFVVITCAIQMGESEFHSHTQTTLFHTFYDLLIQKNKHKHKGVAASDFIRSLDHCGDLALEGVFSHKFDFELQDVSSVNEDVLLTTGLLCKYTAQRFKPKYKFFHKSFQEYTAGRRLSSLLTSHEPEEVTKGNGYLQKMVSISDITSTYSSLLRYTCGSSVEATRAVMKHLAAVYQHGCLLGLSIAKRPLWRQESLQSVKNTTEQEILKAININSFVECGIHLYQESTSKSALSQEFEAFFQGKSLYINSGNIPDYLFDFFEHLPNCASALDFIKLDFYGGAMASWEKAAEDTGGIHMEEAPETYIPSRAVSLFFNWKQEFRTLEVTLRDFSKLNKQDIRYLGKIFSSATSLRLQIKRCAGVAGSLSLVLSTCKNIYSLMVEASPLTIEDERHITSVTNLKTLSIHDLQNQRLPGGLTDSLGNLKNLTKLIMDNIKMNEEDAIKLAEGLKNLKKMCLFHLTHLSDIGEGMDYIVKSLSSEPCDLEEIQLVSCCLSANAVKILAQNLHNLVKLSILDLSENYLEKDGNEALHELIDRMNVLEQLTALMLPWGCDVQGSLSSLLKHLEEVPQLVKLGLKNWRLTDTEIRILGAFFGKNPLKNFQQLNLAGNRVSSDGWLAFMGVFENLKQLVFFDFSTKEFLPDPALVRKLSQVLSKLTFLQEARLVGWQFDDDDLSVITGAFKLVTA

The next assay addresses T2, EGFP-NLRP11^LRR (human) (UniProt P59045).
T2 sequence: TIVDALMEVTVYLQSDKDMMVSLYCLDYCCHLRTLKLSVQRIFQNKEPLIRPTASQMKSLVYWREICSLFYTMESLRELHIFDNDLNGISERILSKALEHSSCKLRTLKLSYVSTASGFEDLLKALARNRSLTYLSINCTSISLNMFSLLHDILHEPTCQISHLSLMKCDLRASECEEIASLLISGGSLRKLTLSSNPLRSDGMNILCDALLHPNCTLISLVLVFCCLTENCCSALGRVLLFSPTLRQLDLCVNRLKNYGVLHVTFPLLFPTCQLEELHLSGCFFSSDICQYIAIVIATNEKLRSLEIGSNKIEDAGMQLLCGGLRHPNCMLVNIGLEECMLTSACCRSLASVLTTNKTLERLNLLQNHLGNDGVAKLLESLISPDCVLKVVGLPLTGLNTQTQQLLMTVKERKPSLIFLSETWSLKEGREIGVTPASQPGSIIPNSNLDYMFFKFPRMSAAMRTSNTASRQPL
Kind of assay: co-IP; immobilised anti-EGFP antibodies, lysates of transiently transfected HEK293 cells (EGFP-NLRP11^LRR with Myc-tagged partners); 50 mM HEPES pH 7.4, 10% glycerol, 2 mM EDTA, 1% NP-40, 150 mM NaCl; immunoblot for Myc.

Assay [1] addresses T3, Flag-NLRP11^NACHT (human) (UniProt P59045).
T3 sequence: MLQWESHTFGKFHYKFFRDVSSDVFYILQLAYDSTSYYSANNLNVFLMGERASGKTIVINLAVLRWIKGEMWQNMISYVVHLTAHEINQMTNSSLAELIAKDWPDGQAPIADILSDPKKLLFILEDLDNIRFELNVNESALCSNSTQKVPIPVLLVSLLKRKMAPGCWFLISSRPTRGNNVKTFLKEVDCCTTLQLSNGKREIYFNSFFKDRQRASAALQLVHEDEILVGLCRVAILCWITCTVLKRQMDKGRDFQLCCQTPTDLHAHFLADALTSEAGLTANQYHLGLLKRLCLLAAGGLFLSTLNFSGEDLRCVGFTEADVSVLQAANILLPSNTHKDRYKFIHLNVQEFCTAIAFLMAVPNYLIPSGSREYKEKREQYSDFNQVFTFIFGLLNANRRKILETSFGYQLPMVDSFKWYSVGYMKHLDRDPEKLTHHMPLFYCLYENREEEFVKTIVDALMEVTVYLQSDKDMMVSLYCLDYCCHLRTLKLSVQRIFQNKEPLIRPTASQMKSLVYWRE
Put plainly: co-IP; immobilised anti-Flag antibodies, lysates of transiently transfected HEK293 cells (Flag-NLRP11^NACHT with HA- or Myc-tagged partners); 50 mM HEPES pH 7.4, 10% glycerol, 2 mM EDTA, 1% NP-40, 180-800 mM NaCl; immunoblot for HA or Myc.

Assay [2] has as its target T3, Flag-NLRP11^NACHT (human). Kind of assay: co-IP; immobilised anti-Flag antibodies, transiently transfected HEK293 cells lysed in RIPA buffer (10 mM Tris-HCl pH 8.0, 1 mM EDTA, 0.5 mM EGTA, 1% Triton X-100, 0.1% sodium deoxycholate, 0.1% SDS, 140 mM NaCl).
Assay [3] has as its target T3, Flag-NLRP11^NACHT (human). Kind of assay: co-IP; immobilised anti-Flag antibodies, lysates of transiently transfected HEK293 cells, washed with increasing NaCl (200, 400, 600 and 800 mM).
The target of a further assay is Flag-ASC^PYD (UniProt Q9ULZ3). Kind of assay: co-IP; immobilised anti-Flag antibodies, lysates of transiently transfected HEK293 cells (PYD constructs); 50 mM HEPES pH 7.4, 10% glycerol, 2 mM EDTA, 1% NP-40, 100 mM NaCl; immunoblot for HA.
The target of another assay is HA-NLRP3^NACHT (human) (UniProt Q96P20). Put plainly: co-IP; immobilised anti-HA antibodies, lysates of transiently transfected HEK293 cells (NACHT constructs); 50 mM HEPES pH 7.4, 10% glycerol, 2 mM EDTA, 1% NP-40, 180-800 mM NaCl; immunoblot for Flag.
Assay [4] has as its target NLRP3 (endogenous, THP-1) (human (endogenous in THP-1)) (UniProt Q96P20). Put plainly: co-IP; immobilised anti-NLRP3 antibodies, total cell lysates of THP-1 cells (plain, NLRP11^KO or ASC^KD restored with NLRP11-Flag or NLRP11^ΔPYD-Flag) primed with LPS or Pam3CSK4 and activated with nigericin (5 uM, 10-45 min); 50 mM HEPES pH 7.4, 50-150 mM NaCl, 10% glycerol, 2 mM EDTA, 0.5% Triton X-100; 4 °C; immunoblot.

The target in assay [5] is ASC (endogenous, THP-1) (human (endogenous in THP-1)) (UniProt Q9ULZ3). Put plainly: co-IP; immobilised anti-ASC antibodies, total cell lysates of NLRP11^KO or NLRP3^KO THP-1 cells restored with NLRP11-Flag or NLRP11^ΔPYD-Flag, primed (LPS or Pam3CSK4, 2 h) and activated with nigericin (5 uM, 10 min); immunoblot for Flag.

This note sets out measurements from PMC9174058.

No constants are given. Whether binding was seen depends on the method and setting. In cells and extracts the contact can be indirect. Some entries that bind do so weakly or less than the wild type. Sequences can lack the tags named with a protein.

Regarding “Myc-NLRP3^PYD (from UniProt Q96P20 1-89) (domain or fragment)”, the binding result with HA-NLRP11^PYD (human) is on record as “no binding”.

With Myc-NLRC4 (from UniProt Q9NPP4 1-1024), the binding entry is recorded as “no binding” in the assay with EGFP-NLRP11^LRR (human) and “binds” in assay [1].

Turning to Myc-NLRP3 (from UniProt Q96P20 1-1036), the binding entry (with EGFP-NLRP11^LRR (human); in assay [1]) was “binds” in each case.

As to “HA-NLRP3^NACHT (from UniProt Q96P20 220-389) (domain or fragment)”, the binding entry in [2] and in assay [3] was “binds” each time.

B1: Myc-pyrin (protein, UniProt O15553 1-781)
chain: MAKTPSDHLLSTLEELVPYDFEKFKFKLQNTSVQKEHSRIPRSQIQRARPVKMATLLVTYYGEEYAVQLTLQVLRAINQRLLAEELHRAAIQEYSTQENGTDDSAASSSLGENKPRSLKTPDHPEGNEGNGPRPYGGGAASLRCSQPEAGRGLSRKPLSKRREKASEGLDAQGKPRTRSPALPGGRSPGPCRALEGGQAEVRLRRNASSAGRLQGLAGGAPGQKECRPFEVYLPSGKMRPRSLEVTISTGEKAPANPEILLTLEEKTAANLDSATEPRARPTPDGGASADLKEGPGNPEHSVTGRPPDTAASPRCHAQEGDPVDGTCVRDSCSFPEAVSGHPQASGSRSPGCPRCQDSHERKSPGSLSPQPLPQCKRHLKQVQLLFCEDHDEPICLICSLSQEHQGHRVRPIEEVALEHKKKIQKQLEHLKKLRKSGEEQRSYGEEKAVSFLKQTEALKQRVQRKLEQVYYFLEQQEHFFVASLEDVGQMVGQIRKAYDTRVSQDIALLDALIGELEAKECQSEWELLQDIGDILHRAKTVPVPEKWTTPQEIKQKIQLLHQKSEFVEKSTKYFSETLRSEMEMFNVPELIGAQAHAVNVILDAETAYPNLIFSDDLKSVRLGNKWERLPDGPQRFDSCIIVLGSPSFLSGRRYWEVEVGDKTAWILGACKTSISRKGNMTLSPENGYWVVIMMKENEYQASSVPPTRLLIKEPPKRVGIFVDYRVGSISFYNVTARSHIYTFASCSFSGPLQPIFSPGTRDGGKNTAPLTICPVGGQGPD
As to B1, the binding entry (with EGFP-NLRP11^LRR (human); in assay [1]) was “no binding” in each case.

B2: HA-NLRP11^PYD (domain or fragment, UniProt P59045 1-91)
chain: T1 sequence
B2: the binding entry with Flag-ASC^PYD is recorded as “binds”.

B3: HA-NOD1^NACHT (domain or fragment, UniProt Q9Y239 133-435)
chain: LRHHLGRDSKFVLCYAQKEELLLEEIYMDTIMELVGFSNESLGSLNSLACLLDHTTGILNEQGETIFILGDAGVGKSMLLQRLQSLWATGRLDAGVKFFFHFRCRMFSCFKESDRLCLQDLLFKHYCYPERDPEEVFAFLLRFPHVALFTFDGLDELHSDLDLSRVPDSSCPWEPAHPLVLLANLLSGKLLKGASKLLTARTGIEVPRQFLRKKVLLRGFSPSHLRAYARRMFPERALQDRLLSQLEANPNLCSLCSVPLFCWIIFRCFQHFRAAFEGSPQLPDCTMTLTDVFLLVTEVHLNR
B3: the binding entry in assay [1] is recorded as “binds”.

B4: HA-NLRP12^NACHT (domain or fragment, UniProt P59046 212-528)
chain: TVVMQGAAGIGKSMLAHKVMLDWADGKLFQGRFDYLFYINCREMNQSATECSMQDLIFSCWPEPSAPLQELIRVPERLLFIIDGFDELKPSFHDPQGPWCLCWEEKRPTELLLNSLIRKKLLPELSLLITTRPTALEKLHRLLEHPRHVEILGFSEAERKEYFYKYFHNAEQAGQVFNYVRDNEPLFTMCFVPLVCWVVCTCLQQQLEGGGLLRQTSRTTTAVYMLYLLSLMQPKPGAPRLQPPPNQRGLCSLAADGLWNQKILFEEQDLRKHGLDGEDVSAFLNMNIFQKDINCERYYSFIHLSFQEFFAAMYYIL
On to B4, for which the binding entry in [2], in assay [1] and in assay [3] was “binds” each time.

B5: Flag-NLRP11^NACHT (domain or fragment, UniProt P59045 105-624)
chain: T3 sequence
B5: the binding result in the assay with HA-NLRP3^NACHT (human) is “binds”.

B6: NLRP11^ΔPYD-Flag (domain or fragment, UniProt P59045 104-1033)
chain: FMLQWESHTFGKFHYKFFRDVSSDVFYILQLAYDSTSYYSANNLNVFLMGERASGKTIVINLAVLRWIKGEMWQNMISYVVHLTAHEINQMTNSSLAELIAKDWPDGQAPIADILSDPKKLLFILEDLDNIRFELNVNESALCSNSTQKVPIPVLLVSLLKRKMAPGCWFLISSRPTRGNNVKTFLKEVDCCTTLQLSNGKREIYFNSFFKDRQRASAALQLVHEDEILVGLCRVAILCWITCTVLKRQMDKGRDFQLCCQTPTDLHAHFLADALTSEAGLTANQYHLGLLKRLCLLAAGGLFLSTLNFSGEDLRCVGFTEADVSVLQAANILLPSNTHKDRYKFIHLNVQEFCTAIAFLMAVPNYLIPSGSREYKEKREQYSDFNQVFTFIFGLLNANRRKILETSFGYQLPMVDSFKWYSVGYMKHLDRDPEKLTHHMPLFYCLYENREEEFVKTIVDALMEVTVYLQSDKDMMVSLYCLDYCCHLRTLKLSVQRIFQNKEPLIRPTASQMKSLVYWREICSLFYTMESLRELHIFDNDLNGISERILSKALEHSSCKLRTLKLSYVSTASGFEDLLKALARNRSLTYLSINCTSISLNMFSLLHDILHEPTCQISHLSLMKCDLRASECEEIASLLISGGSLRKLTLSSNPLRSDGMNILCDALLHPNCTLISLVLVFCCLTENCCSALGRVLLFSPTLRQLDLCVNRLKNYGVLHVTFPLLFPTCQLEELHLSGCFFSSDICQYIAIVIATNEKLRSLEIGSNKIEDAGMQLLCGGLRHPNCMLVNIGLEECMLTSACCRSLASVLTTNKTLERLNLLQNHLGNDGVAKLLESLISPDCVLKVVGLPLTGLNTQTQQLLMTVKERKPSLIFLSETWSLKEGREIGVTPASQPGSIIPNSNLDYMFFKFPRMSAAMRTSNTASRQPL
With B6, the binding result in assay [4] and in [5] was “no binding” in each case.
